Some of the results follow.

In this assay the target is T1, OsWOX13 (Oryza sativa, UniProt Q5QMM3 1-267).
T1 sequence: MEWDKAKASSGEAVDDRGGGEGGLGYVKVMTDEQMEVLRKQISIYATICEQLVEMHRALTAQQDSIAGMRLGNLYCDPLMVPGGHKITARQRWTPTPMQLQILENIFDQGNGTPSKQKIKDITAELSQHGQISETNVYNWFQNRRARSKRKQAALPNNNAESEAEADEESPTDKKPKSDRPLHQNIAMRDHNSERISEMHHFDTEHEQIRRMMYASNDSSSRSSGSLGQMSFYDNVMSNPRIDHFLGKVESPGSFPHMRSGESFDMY
The assay is described as follows: protein-binding microarray (RPBM); PBS, 2% BSA, 51.3 ng/ul salmon testes DNA, 50 uM zinc acetate, 200 nM TF, 25 C, 1 h; high values mean tight binding. To be noted: protein: recombinant; tags: N-terminal polyhistidine and DsRed monomer fusion (pET32a); label: CyDye5-dUTP incorporated in the synthesized complementary strand; 3' TTTTT single-stranded linker to array surface; dsDNA, one strand shown. An outline of the steps:
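Binding signal here means per-feature fluorescence intensity in arbitrary units. The values were read on an Axon 4000B scanner after a custom Agilent array, double-stranded by primer extension with Cy5-dUTP, was incubated with 200 nM protein at 25 °C for 1 h in PBS with 2% BSA, salmon testes DNA and 50 µM zinc acetate, then washed. The proteins were transcription factors with an N-terminal polyhistidine tag and DsRed, expressed in E. coli BL21-CodonPlus and purified on Ni–NTA.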
“TCAAATAATTAGAAGGGGTGAGACTTCGAATCCAAGTCGTCGGAGTCACCTAGTGCAG”: the binding signal was 14400 fluorescence intensity (a.u.).
The result for “ACTAAACTATCATAAACTATCATGTTCATCCTCATTTGACCGGAGTCACCTAGTGCAG” reads 5550 fluorescence intensity (a.u.).
As for “CTGTAATTTGTTTTGTTATCAATCTATGTTTAATACTTTACGGAGTCACCTAGTGCAG”, the figure is 17400 fluorescence intensity (a.u.).
As for “ATGATTTCCACTAAACCCAATTAATTATCCCAAGCAGATTCGGAGTCACCTAGTGCAG”, the figure is 9000 fluorescence intensity (a.u.); as for “GCCCAATCACACGCGGGGAAAGTTGCGTGAGGGACTTCTCCGGAGTCACCTAGTGCAG”, 7260 fluorescence intensity (a.u.); as for “TTCCCATTATCCAATCTCAATCCCACCCGCATTTTCCATTCGGAGTCACCTAGTGCAG”, 3380 fluorescence intensity (a.u.).
Take “CTTGACACACACTGCCCGCCACTGCCTCCTCACCATCCTACGGAGTCACCTAGTGCAG”: the binding signal was 3680 fluorescence intensity (a.u.).
As for “GAATGAAATAAACCTAATTAATAAAGACACTAAGACAGTGCGGAGTCACCTAGTGCAG”, the figure is 5390 fluorescence intensity (a.u.); as for “CCAGACCAATCACGTTCCAGATAAGACCTGCAATTGGGCCCGGAGTCACCTAGTGCAG”, 14800 fluorescence intensity (a.u.); as for “GAGGGTAATTTGGTCCGAGATAGTATTTTAGCGTGTAACCCGGAGTCACCTAGTGCAG”, 3820 fluorescence intensity (a.u.).
The result for “CTTTTCTCCCAGTTTGATCAATTTCCACCCTTCAAATTCTCGGAGTCACCTAGTGCAG” reads 6860 fluorescence intensity (a.u.); that for “CAGCTCACTAATTAACTAACACAGGGAGTACGAAAACAAACGGAGTCACCTAGTGCAG”, 3700 fluorescence intensity (a.u.); that for “TGTACGAATTAGCTATTAAATTGGTTATAGATGAATTAAACGGAGTCACCTAGTGCAG”, 7260 fluorescence intensity (a.u.).
The result for “CGAGAATGCAGATAATGTTAATTTGCAAGTTCAATTTTGGCGGAGTCACCTAGTGCAG” reads 5730 fluorescence intensity (a.u.); that for “CTGTTGATTATTGCTATATTTGTCTGGGATTGTTAGTCTTCGGAGTCACCTAGTGCAG”, 24500 fluorescence intensity (a.u.); that for “AGTGATAGATAAGTAAAAGGTATATATTTAAGGGATAAAACGGAGTCACCTAGTGCAG”, 13000 fluorescence intensity (a.u.).
On to “AAAATATAATTATTATCCAAAATACCCTCCAGGAACCCTACGGAGTCACCTAGTGCAG”, for which the binding signal is 10200 fluorescence intensity (a.u.).
Turning to “GAATTTGATTTGACAAATGAAATGGAGAGTTGGCCAAATACGGAGTCACCTAGTGCAG”, the binding signal was 35000 fluorescence intensity (a.u.).
As for “CAATCAAGGTGCTAGATGATTGATTGCCACCGAATCATTGCGGAGTCACCTAGTGCAG”, the figure is 32900 fluorescence intensity (a.u.); as for “CCCAATCATCAATATAATTGCTAGTAATATCTTAAGCAACCGGAGTCACCTAGTGCAG”, 25800 fluorescence intensity (a.u.); as for “GCATTCAATGACAATCAGATCAGCCATCATATGTGTTCGCCGGAGTCACCTAGTGCAG”, 4520 fluorescence intensity (a.u.).
The result for “GTTTTGATTGCAAACTGTACTAAGACCATCCGTTGTAATTCGGAGTCACCTAGTGCAG” reads 41300 fluorescence intensity (a.u.); that for “TAAAATTCAATTAAATTAAAATTGAGGATTTATCATTTCTCGGAGTCACCTAGTGCAG”, 13900 fluorescence intensity (a.u.); that for “CATTCATTAATTAAACTAATTAATCAGAAGTTAATTGAGACGGAGTCACCTAGTGCAG”, 47600 fluorescence intensity (a.u.).
With “ACAAAATTGATTCATCGAGACTCCTGCTTTGCTCGTATTCCGGAGTCACCTAGTGCAG”, the binding signal was 28000 fluorescence intensity (a.u.).
The result for “ACGAGGGATCAATCAGAATTTAGTCACGCACCCAGGAACACGGAGTCACCTAGTGCAG” reads 6960 fluorescence intensity (a.u.).
As to “TGCCGAGATTTAATCAACTACTATTAGGTATGTGGTATCTCGGAGTCACCTAGTGCAG”, the binding signal was 4800 fluorescence intensity (a.u.).
The result for “AGGATTGTGTAATGGAACAAGATTGATAATAACAAATTTACGGAGTCACCTAGTGCAG” reads 25200 fluorescence intensity (a.u.); that for “AGTTGTACTTGTTTATTATTAATTACAATTGTGAGACTAACGGAGTCACCTAGTGCAG”, 4490 fluorescence intensity (a.u.); that for “CAGCACAGTTAAATTGGGACTTTTGTATTCCTAGTTTACACGGAGTCACCTAGTGCAG”, 3640 fluorescence intensity (a.u.).
The result for “GAGATATAATTGATTAGAGTTACTTTCAATCTTTTCCGTGCGGAGTCACCTAGTGCAG” reads 62000 fluorescence intensity (a.u.); that for “TACTTTTAAATTTATGTTTTATTGTTCAGGTTCTCAAATTCGGAGTCACCTAGTGCAG”, 5580 fluorescence intensity (a.u.).
As for “TTGATTTATGACTCCATATTTTACTGAAATGGAAGCATGGCGGAGTCACCTAGTGCAG”, the figure is 15700 fluorescence intensity (a.u.); as for “CTTTAATGTTGATATACCATAGTTTTGATGCTTGATGTGCCGGAGTCACCTAGTGCAG”, 4230 fluorescence intensity (a.u.).
On to “TTCCCATTTCTTGGAAGATTGGCCAATAACTAGTAACATTCGGAGTCACCTAGTGCAG”, for which the binding signal was 5230 fluorescence intensity (a.u.).
The result for “GGGCATAAATTTTGGTGATTTTCGGTTTTCTGAAGTTCCTCGGAGTCACCTAGTGCAG” reads 7130 fluorescence intensity (a.u.); that for “CGCTCAATCAATCTGTACATGCTACCATGCTAGTTTCACCCGGAGTCACCTAGTGCAG”, 22800 fluorescence intensity (a.u.).
For the sequence “ATCTCTATAATAGACAAACTCATAAGATGAAAATTCTCGACGGAGTCACCTAGTGCAG”, the binding signal was 4180 fluorescence intensity (a.u.).
As for “GAACAGACAGATTGATGCCCATGTTACCATGGTGGTGTCTCGGAGTCACCTAGTGCAG”, the figure is 36000 fluorescence intensity (a.u.); as for “ACGATGTGACAAATCGTTAATTGAGTGGCAAATAGTTAAACGGAGTCACCTAGTGCAG”, 10400 fluorescence intensity (a.u.).
Turning to “TATAATTTCCGTAATTCTCCGTATATAGAACAGTTGTAAGCGGAGTCACCTAGTGCAG”, the binding signal was 8920 fluorescence intensity (a.u.).
As for “TGAGATGATTTGGGCGTCCGTGGCTCGGTGGCGGCTACGTCGGAGTCACCTAGTGCAG”, the figure is 5930 fluorescence intensity (a.u.).

Values taken from paper PMC7819943, “Rice protein-binding microarrays: a tool to detect cis-acting elements near promoter regions in rice”.
